Measured values taken from patent US20250195681A1, “ANTI-GPC3 ANTIBODY DRUG CONJUGATE AND USE THEREOF” (DUALITY BIOLOGICS (SUZHOU) CO., LTD., priority 2022, published 2025).

Assays:
Huh7 tumor-bearing mice [1] = assay: Efficacy evaluation in Huh7 tumor-bearing mice (5.2); type: in vivo, BALB/c nude mice; conditions: for D 14 TGI %: day 14; for D 17 TGI %: day 17; for D 21 TGI %: day 21
Experimental: (§1) To study the inhibitory effect of DB1001-X1 on tumor formation in vivo, the antitumor effect of DB1001-X1 was evaluated after xenograft tumors were formed in mice with GPC3-positive expression human liver cancer cells HepG2 or Huh7.
(§2) Blank control group (control group): normal saline
DB1001-X1 (treatment group): 3 mg/kg
(§3) DB1001-X1 (treatment group): 10 mg/kg
(§4) 2. Preparation method: All samples were diluted and prepared with normal saline.
(§5) 3. Test animals: Female BALB/c mice, 8 weeks old, purchased from GemPharmatech Co., Ltd.
(§6) 5×10^6 Huh7 cells were subcutaneously inoculated into the right anterior scapula of 8-week-old female BALB/c nude mice. When the tumor grew to approximately 130 mm^3, the tumor-bearing mice were randomly grouped using StudyDirector™ software, and on the same day (Day 0), DB1001-X1 (3 mg/kg) and DB1001-X1 (10 mg/kg) were administered via intravenous injection (i.v.) once. The experiment was terminated after 21 days of administration. Tumor volume and body weight were measured twice weekly, and data were recorded.
(§7) Six mice were included in each group (vehicle control group or treatment group). Tumor growth inhibition rate (TGI %) was calculated by measuring tumor volume.

HepG2 (GPC3+) [2] = assay: In vitro proliferation inhibition test of DB1001 and DB1001-X1, CTG method (4.1); type: cell-based, human
Experimental: (§8) The CellTiter-Glo® luminescent cell viability assay (CTG method) was used to evaluate the inhibitory effect of anti-GPC3 naked antibody DB1001 and anti-GPC3 ADC DB1001-X1 on the proliferation of GPC3-positive expression human liver cancer cells HepG2 and Huh7 after 7 days of treatment.
(§9) Cells in the logarithmic growth phase were collected and plated at a density of 4000 cells/well (HepG2 cells) or 6000 cells/well (Huh7 cells). The cell plate was placed in a 37° C., 5% CO2 incubator and cultured overnight. On the second day of the experiment, DB1001 and DB1001-X1 were diluted with a complete medium in a 3-fold serial dilution to obtain 9 concentration gradients, starting with a maximum concentration of 300 nM. The obtained solutions were added to the cell culture plate at 50 μL/well with a complete medium used as a blank control, and 3 replicate wells were set up. The plate was incubated for another 7 days in a 37° C., 5% CO2 incubator. At the end of the incubation, the cell culture plate was taken out and equilibrated to room temperature. 50 μL of CTG detection reagent (Promega, Cat #: G7573) was added to each well, and the mixture was shaken and mixed well. After the mixture was allowed to stand for 10 minutes, the luminescence signal was detected and read using a microplate reader. GraphPad Prism software was used to plot the S-shaped dose-response curve using a nonlinear regression model, and the IC50 values were calculated. The cell viability was calculated using the formula: cell viability=(Lumtest compound−Lumblank control)/(Lumvehicle control−Lumblank control)×100% The experimental results are shown in the table below: […]

Huh7 (GPC3+) [3] = assay: as above; type: cell-based, human
Experimental: as §8, §9

HepG2 tumor-bearing mice [4] = assay: Efficacy evaluation in HepG2 tumor-bearing mice (5.1); type: in vivo, BALB/c nude mice
Experimental: as §1, §2, §3
DB1001 (treatment group): 10 mg/kg
as §4, §5
as §6, with “1×10^7 HepG2” for “5×10^6 Huh7”, “110” for “130”, “DB1001” for “DB1001-X1 (3 mg/kg)”, “DB1001-X1” for “DB1001-X1 (10 mg/kg)”
as §7

HepG2 (GPC3+) [5] = assay: In vitro proliferation inhibition test of DB1001-X1 and DB1001-X2, CTG method (4.2); type: cell-based, human; conditions: for proliferation inhibitory activity (in words): HepG2, conclusion to Table 5; for IC50: Table 5, HepG2 (GPC3+), 6 days of treatment, read-out: Cell killing IC50
Experimental: as §9, with “5000” for “4000”, “5000” for “6000”, “On the second day of the experiment, DB1001 and DB1001-X1 were diluted with a complete medium in a 3-fold serial dilution to obtain 9 concentration gradients, starting with a maximum concentration of 300 nM.” left out

Huh7 (GPC3+) [6] = assay: as above; type: cell-based, human; conditions: for proliferation inhibitory activity (in words): Huh7, conclusion to Table 5; for IC50: Table 5, Huh7 (GPC3+), 6 days of treatment, read-out: Cell killing IC50
Experimental: as §9, with “5000” for “4000”, “5000” for “6000”, “On the second day of the experiment, DB1001 and DB1001-X1 were diluted with a complete medium in a 3-fold serial dilution to obtain 9 concentration gradients, starting with a maximum concentration of 300 nM.” left out

HepG2 tumor-bearing mice [7] = assay: Efficacy evaluation in HepG2 tumor-bearing mice (5.3); type: in vivo, BALB/c nude mice
Experimental: as §2
(§10) DB1001-Deruxtecan (treatment group): 1 mg/kg
(§11) DB1001-Deruxtecan (treatment group): 3 mg/kg
(§12) (2) Preparation method: All samples were diluted and prepared with normal saline.
(3) Test animals: Female BALB/c mice, 8 weeks old, purchased from GemPharmatech Co., Ltd.
1×10^7 HepG2 cells were subcutaneously inoculated into the right anterior scapula of 8-week-old female BALB/c nude mice. […] The experiment was terminated after 21 days of administration. Tumor volume and body weight were measured twice weekly, and data were recorded.
(§13) Tumor growth inhibition rate (TGI %) was calculated by measuring tumor volume.

Huh7 tumor-bearing mice [8] = assay: Efficacy evaluation in Huh7 tumor-bearing mice (5.4); type: in vivo, BALB/c nude mice
Experimental: as §2, §10, §11, §12
(3) Test animals: Female BALB/c naked mice, 8 weeks old, purchased from GemPharmatech Co., Ltd.
5×10^6 Huh7 cells were subcutaneously inoculated into the right anterior scapula of 8-week-old female BALB/c nude mice. […] The experiment was terminated after 21 days of administration. Tumor volume and body weight were measured twice weekly, and data were recorded.
as §13

B1: DB1001-X1: anti-GPC3 antibody DB1001 conjugated with linker-payload X1, DAR 7.51 (conjugate)
heavy: QVQLVESGGGVVQPGRSLRLSCAASGFTFRSFGMHWVRQAPGKGLEWVAVISYDASNEYYADSVKGRFIISRDNSKDTLYLQMNSLRAGDTAVYYCAKGGALRWYFAYWGQGTLVTVSS[human IgG1 constant region left out]
light: EIVMTQSPATLSVSPGERATLSCRASQSISSNLGWYQQKPGQAPRLLIYGASTRATGIPARFSGSGSGTEFTLTISSLQSEDFAVYYCQQYRSWPPLTFGGGTKVEIKRTVAAPSVFIFPPSDEQLKSGTASVVCLLNNFYPREAKVQWKVDNALQSGNSQESVTEQDSKDSTYSLSSTLTLSKADYEKHKVYACEVTHQGLSSPVTKSFNRGEC
D 14 TGI % (Huh7 tumor-bearing mice [1]; Huh7, 3 mpk i.v. once): 63.83% | D 17 TGI % (Huh7 tumor-bearing mice [1]; Huh7, 3 mpk i.v. once): 63.59% | D 21 TGI % (Huh7 tumor-bearing mice [1]; Huh7, 3 mpk i.v. once): 59.76% | D 14 TGI % (Huh7 tumor-bearing mice [1]; Huh7, 10 mpk i.v. once): 97.09% | D 17 TGI % (Huh7 tumor-bearing mice [1]; Huh7, 10 mpk i.v. once): 94.70% | D 21 TGI % (Huh7 tumor-bearing mice [1]; Huh7, 10 mpk i.v. once): 89.94% | tumor inhibitory activity (in words) (Huh7 tumor-bearing mice [1]; Huh7, after a single administration, 3 and 10 mg/kg): significant dose-dependent tumor inhibitory activity | proliferation inhibitory activity (in words) (HepG2 (GPC3+) [2]; HepG2, conclusion to Table 4): significant proliferation inhibitory activity | IC50 (HepG2 (GPC3+) [2]; Table 4, HepG2 (GPC3+), 7 days of treatment, read-out: Cell killing IC50): 2.63 nM | proliferation inhibitory activity (in words) (Huh7 (GPC3+) [3]; Huh7, conclusion to Table 4): significant proliferation inhibitory activity | IC50 (Huh7 (GPC3+) [3]; Table 4, Huh7 (GPC3+), 7 days of treatment, read-out: Cell killing IC50): 0.65 nM | D 13 TGI % (HepG2 tumor-bearing mice [4]; HepG2, 10 mg/kg i.v. once, day 13): 98.90% | D 16 TGI % (HepG2 tumor-bearing mice [4]; HepG2, 10 mg/kg i.v. once, day 16): 94.97% | D 20 TGI % (HepG2 tumor-bearing mice [4]; HepG2, 10 mg/kg i.v. once, day 20): 86.44% | tumor inhibition effect (in words) (HepG2 tumor-bearing mice [4]; HepG2, after a single administration, 10 mg/kg): significantly enhanced antitumor activity | proliferation inhibitory activity (in words) (HepG2 (GPC3+) [5]): significantly enhanced proliferation inhibitory activity | IC50 (HepG2 (GPC3+) [5]): 8.37 nM | proliferation inhibitory activity (in words) (Huh7 (GPC3+) [6]): significantly enhanced proliferation inhibitory activity | IC50 (Huh7 (GPC3+) [6]): 4.29 nM

B2: DB1001-X2: anti-GPC3 antibody DB1001 conjugated with linker-payload X2, DAR 7.72 (conjugate)
heavy: QVQLVESGGGVVQPGRSLRLSCAASGFTFRSFGMHWVRQAPGKGLEWVAVISYDASNEYYADSVKGRFIISRDNSKDTLYLQMNSLRAGDTAVYYCAKGGALRWYFAYWGQGTLVTVSS[human IgG1 constant region left out]
light: EIVMTQSPATLSVSPGERATLSCRASQSISSNLGWYQQKPGQAPRLLIYGASTRATGIPARFSGSGSGTEFTLTISSLQSEDFAVYYCQQYRSWPPLTFGGGTKVEIKRTVAAPSVFIFPPSDEQLKSGTASVVCLLNNFYPREAKVQWKVDNALQSGNSQESVTEQDSKDSTYSLSSTLTLSKADYEKHKVYACEVTHQGLSSPVTKSFNRGEC
TGI % (HepG2 tumor-bearing mice [7]; HepG2, 1 mpk i.v. once): ++ (60 ≤ TGI % < 75%) | TGI % (HepG2 tumor-bearing mice [7]; HepG2, 3 mpk i.v. once): +++ (TGI % ≥ 80%) | TGI % (Huh7 tumor-bearing mice [8]; Huh7, 1 mpk i.v. once): ++ (60 ≤ TGI % < 75%) | TGI % (Huh7 tumor-bearing mice [8]; Huh7, 3 mpk i.v. once): +++ (TGI % ≥ 80%) | proliferation inhibitory activity (in words) (HepG2 (GPC3+) [5]): significantly enhanced proliferation inhibitory activity | IC50 (HepG2 (GPC3+) [5]): 7.02 nM | proliferation inhibitory activity (in words) (Huh7 (GPC3+) [6]): significantly enhanced proliferation inhibitory activity | IC50 (Huh7 (GPC3+) [6]): 3.91 nM
